According to paper PMC1479839 (BMC Biology, 2006):

Biological target: T1, IL-4Rα extracellular domain (residues 1 to 210) with C182A and Q207C, biotinylated and immobilised (human, biotinylated via the free thiol group)
T1 construct: extracellular domain of the human IL-4 receptor alpha chain, residues 1 to 210; also called IL-4RαECD; IL4-RαECD; source: baculovirus infected Sf9 insect cell culture, purified
Assay: SPR; direct binding of IL-13 alone to IL-4RαECD; below detection limit; apparent
Conditions: both partners purified

B1: human interleukin 13 (wild type) (ligand)
chain: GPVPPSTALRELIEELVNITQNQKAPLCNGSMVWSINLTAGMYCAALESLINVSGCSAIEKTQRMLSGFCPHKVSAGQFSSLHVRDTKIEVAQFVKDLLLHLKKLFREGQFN
Kd: > 100 µM
